Reference: ChEMBL document CHEMBL4888484, “Replenishing the malaria drug discovery pipeline: Screening and hit evaluation of the MMV Hit Generation Library 1 (HGL1) against asexual blood stage Plasmodium falciparum ,using a nano luciferase reporter read-out” (2022)
Among all 150,000 compounds or so, about 540 (0.36%) showed an effect of 50% or more. This is one part of the list.

test system: Plasmodium falciparum; assay: Primary screen in NF54 nanoGlo assay, in single point, at 2uM, 72h; a lower Z score goes with more inhibition; format: functional, Erythrocyte; conditions: timepoint 72 hour

In order of falling “% Inhibition” value:
1. C[C@H](NC(=O)c1cccnc1O)C(=O)N1CCCC1  12%
2. CCCCCNC(=O)c1n[nH]c2c1CN(C(=O)Cc1ccccc1C)CC2  9%
3. CCc1nnsc1C(=O)NCCc1ccc(OCc2ccccc2)cc1  9%
4. O=S(=O)(Cc1cc(Cl)ccc1F)N[C@@H](CCO)C1CCCCC1  8%
5. Cc1ccc(C)c(NCN2C(=O)NC(C)(C)C2=O)c1  7%
6. Cc1nnnn1CCCN1CCc2onc(-c3cccc4ccccc34)c2C1  7%
7. COCCOc1cc(NC(=O)NC2CC(C)(OC)C2(C)C)ccn1 (centres undefined)  6%
8. COc1ccc(NC(=O)[C@@H](c2cccs2)N(Cc2ccccc2)C(=O)Cn2nnc3ccccc32)cc1  5%
9. CCOC(=O)N1CCC(N2CCN3CCCC3C2C2CCCCC2)CC1 (centres undefined)  5%
10. CC(C)C[C@H]1C(=O)N(c2ccc(F)cn2)C(=O)N1C  4%
11. Cc1ccccc1-c1cc2c(c(O[C@H]3CCOC3)c1)OCCNC2  2%
12. O=C(c1ccccc1)[C@H]1[C@]2(C(=O)Nc3ccccc32)[C@H](Cc2ccccc2)N[C@@]12C(=O)Nc1ccccc12  1%
13. CCOC(=O)c1cnn(-c2nc3ccccc3o2)c1C  1%
14. O=C(CNC1(c2cccc(Br)c2)CC1)N1CCNC1=O  1%
15. CCc1noc(C)c1CN[C@H]1CC(C)(C)OC1(C)C  0%
16. Cc1ccc(CN2C(=O)Cn3cccc3[C@@H]2C(=O)NC2CCCC2)cc1  0%
17. CCn1nc(C)c(CNC[C@H]2COc3ccccc3O2)c1C  0%
18. COc1ccccc1CN[C@H](c1ccccc1)c1cc2ccccc2o1  0%
19. COCC1CCCN(C(=O)[C@@H](N)C(C)(C)C)C1 (some centres undefined)  -3%
20. CO[C@H]1[C@H](NC(=O)c2ccco2)c2ccccc2C12CCN(Cc1nc(C(C)C)cs1)CC2  -3%
21. COc1ccc(S(=O)(=O)N2C[C@H](COCC3CC3)C3(CCOCC3)C2)cc1Cl  -3%
22. COc1ccccc1COc1ccc(-c2noc(C)n2)cc1OC  -4%
23. O=C(CCc1ccccc1)Nc1ccc2c(c1)cc(C(=O)NCc1ccncc1)n2Cc1ccccc1  -6%
24. CC1CC(C)CN(C(=O)c2ccc(NC(=O)c3cccs3)cc2)C1 (centres undefined)  -6%
25. CCC(CC)(CO)CNC(=O)Nc1cccc(F)c1F  -6%
26. C#CCOc1ccc([C@H]2CC(=O)Nc3c2cnn3Cc2ccc3c(c2)OCO3)cc1  -7%
27. O=S(=O)(NC1CCCC(O)C1)c1ccc2c(c1)CCCC2 (centres undefined)  -8%
28. O=C(NC[C@H]1CCCN(c2ccncc2)C1)c1cnccn1  -8%
29. Cc1[nH]c2ccccc2c1C1=CCN(C(=O)c2nccn2C)CC1  -8%
30. Cc1cc(NC(=O)CN(C)[C@@H](C)CC(C)C)on1  -9%
31. Cc1cccc(NC(=O)c2cccc(N3C[C@@H](C(=O)Nc4cc(C)ccc4C)CC3=O)c2)c1  -9%
32. CCCc1cc(N2CCC3(CC2)C[C@@H](C(=O)O)N(C(C)=O)C3)nc(C)n1  -11%
33. CNC(=O)CN1CCN(CC2CCC2)CC1=O  -12%
34. O=C(CC1C(=O)Nc2c(F)cccc21)NC[C@H]1C[C@@H]1c1ccccc1 (some centres undefined)  -12%
35. NC(=O)[C@@H]1CCCN1S(=O)(=O)c1ccc2c(c1)CCC(=O)N2  -13%
36. COc1cccc(C(C(=O)O)N2C[C@H]3CCN(Cc4ccccc4)[C@H]3C2)c1 (some centres undefined)  -13%
37. Cn1c(=O)n(Cc2noc(C3CC3)n2)c2ccccc21  -14%
38. CCS(=O)(=O)CCn1ccnc1-c1cc2c(cc1OC)OCO2  -16%
39. CCN1CC(=O)N[C@H]2CN(C(=O)Cn3nc(C)c(C)cc3=O)CC[C@@H]2OCc2cccc(c2)Oc2cccc(c2)CC1=O  -17%
40. O=C(Nc1ccc2c(c1)OCO2)c1nnc(C(=O)N2CCC[C@H](C(=O)NCc3ccccc3)C2)s1  -21%
41. CN1CCN(C(=O)c2cc3n(n2)CCN(c2cc(-n4cccn4)ncn2)C3)CC1  -22%
42. Cc1cc(S(=O)(=O)N(CCO)CCO)c(Cl)cc1Br  -28%

In order of falling Z score:
1. CN1CCN(C(=O)c2cc3n(n2)CCN(c2cc(-n4cccn4)ncn2)C3)CC1  4.12
2. Cc1cc(S(=O)(=O)N(CCO)CCO)c(Cl)cc1Br  3.26
3. COc1cccc(C(C(=O)O)N2C[C@H]3CCN(Cc4ccccc4)[C@H]3C2)c1 (some centres undefined)  2.68
4. CNC(=O)CN1CCN(CC2CCC2)CC1=O  2.3
5. CCN1CC(=O)N[C@H]2CN(C(=O)Cn3nc(C)c(C)cc3=O)CC[C@@H]2OCc2cccc(c2)Oc2cccc(c2)CC1=O  2.22
6. CCS(=O)(=O)CCn1ccnc1-c1cc2c(cc1OC)OCO2  2.2
7. O=C(CC1C(=O)Nc2c(F)cccc21)NC[C@H]1C[C@@H]1c1ccccc1 (some centres undefined)  1.88
8. NC(=O)[C@@H]1CCCN1S(=O)(=O)c1ccc2c(c1)CCC(=O)N2  1.82
9. O=C(Nc1ccc2c(c1)OCO2)c1nnc(C(=O)N2CCC[C@H](C(=O)NCc3ccccc3)C2)s1  1.82
10. Cn1c(=O)n(Cc2noc(C3CC3)n2)c2ccccc21  1.64
11. Cc1[nH]c2ccccc2c1C1=CCN(C(=O)c2nccn2C)CC1  1.53
12. CCCc1cc(N2CCC3(CC2)C[C@@H](C(=O)O)N(C(C)=O)C3)nc(C)n1  1.36
13. CC1CC(C)CN(C(=O)c2ccc(NC(=O)c3cccs3)cc2)C1 (centres undefined)  1.2
14. O=C(NC[C@H]1CCCN(c2ccncc2)C1)c1cnccn1  1.15
15. O=S(=O)(NC1CCCC(O)C1)c1ccc2c(c1)CCCC2 (centres undefined)  1.09
16. Cc1cc(NC(=O)CN(C)[C@@H](C)CC(C)C)on1  0.95
17. Cc1cccc(NC(=O)c2cccc(N3C[C@@H](C(=O)Nc4cc(C)ccc4C)CC3=O)c2)c1  0.89
18. O=C(CCc1ccccc1)Nc1ccc2c(c1)cc(C(=O)NCc1ccncc1)n2Cc1ccccc1  0.74
19. CCC(CC)(CO)CNC(=O)Nc1cccc(F)c1F  0.72
20. C#CCOc1ccc([C@H]2CC(=O)Nc3c2cnn3Cc2ccc3c(c2)OCO3)cc1  0.68
21. COc1ccccc1COc1ccc(-c2noc(C)n2)cc1OC  0.53
22. CO[C@H]1[C@H](NC(=O)c2ccco2)c2ccccc2C12CCN(Cc1nc(C(C)C)cs1)CC2  0.46
23. COc1ccc(S(=O)(=O)N2C[C@H](COCC3CC3)C3(CCOCC3)C2)cc1Cl  0.43
24. COCC1CCCN(C(=O)[C@@H](N)C(C)(C)C)C1 (some centres undefined)  0.36
25. CCc1noc(C)c1CN[C@H]1CC(C)(C)OC1(C)C  0.03
26. COc1ccccc1CN[C@H](c1ccccc1)c1cc2ccccc2o1  0.01
27. CCn1nc(C)c(CNC[C@H]2COc3ccccc3O2)c1C  -0.03
28. Cc1ccc(CN2C(=O)Cn3cccc3[C@@H]2C(=O)NC2CCCC2)cc1  -0.04
29. O=C(CNC1(c2cccc(Br)c2)CC1)N1CCNC1=O  -0.06
30. CCOC(=O)c1cnn(-c2nc3ccccc3o2)c1C  -0.07
31. O=C(c1ccccc1)[C@H]1[C@]2(C(=O)Nc3ccccc32)[C@H](Cc2ccccc2)N[C@@]12C(=O)Nc1ccccc12  -0.27
32. Cc1ccccc1-c1cc2c(c(O[C@H]3CCOC3)c1)OCCNC2  -0.27
33. CC(C)C[C@H]1C(=O)N(c2ccc(F)cn2)C(=O)N1C  -0.6
34. COc1ccc(NC(=O)[C@@H](c2cccs2)N(Cc2ccccc2)C(=O)Cn2nnc3ccccc32)cc1  -0.6
35. CCOC(=O)N1CCC(N2CCN3CCCC3C2C2CCCCC2)CC1 (centres undefined)  -0.94
36. Cc1nnnn1CCCN1CCc2onc(-c3cccc4ccccc34)c2C1  -0.94
37. CCCCCNC(=O)c1n[nH]c2c1CN(C(=O)Cc1ccccc1C)CC2  -1.07
38. Cc1ccc(C)c(NCN2C(=O)NC(C)(C)C2=O)c1  -1.13
39. COCCOc1cc(NC(=O)NC2CC(C)(OC)C2(C)C)ccn1 (centres undefined)  -1.19
40. CCc1nnsc1C(=O)NCCc1ccc(OCc2ccccc2)cc1  -1.26
41. O=S(=O)(Cc1cc(Cl)ccc1F)N[C@@H](CCO)C1CCCCC1  -1.3
42. C[C@H](NC(=O)c1cccnc1O)C(=O)N1CCCC1  -1.44
